According to the antibiotic and cytotoxicity screens of Wong et al. (2023):
The other results are listed elsewhere or left out.

tested on: HSkMC (human skeletal muscle cells); assay: cytotoxicity call (relative viability < 0.9); conditions: 10 µM

Row | SMILES | cytotoxicity call
1 | CC(C)(CO)C(O)C(=O)NCCC(=O)[O-].[Na+] (stereo not drawn) [PANTOTHENIC ACID(d) Na salt ] | inactive
2 | CC1=CCCC(C)=CCC(C)(C)C=CC1 [HUMULENE (alpha) ] | inactive
3 | COc1ccc(NC(=O)Nc2ccc3c(c2)C(=O)N([C@H](C)CO)C[C@@H](C)[C@@H](CN(C)CC2CCCCC2)O3)cc1 | inactive
4 | CC(C)(N)c1ccc(F)cc1 | inactive
5 | C[C@H]1CN([C@@H](C)CO)S(=O)(=O)c2ccc(-c3ccc(C(=O)N(C)C)cc3)cc2O[C@@H]1CN(C)C(=O)Cc1ccccn1 | inactive
6 | COC1C(O)CC(=O)OC(C)CC=CC=CC(O)C(C)CC(CC=O)C1OC1OC(C)C(OC2CC(C)(O)C(OC(=O)CC(C)C)C(C)O2)C(N(C)C)C1O (stereo not drawn) [KITASAMYCINS [A1 shown] ] | inactive
7 | CO[C@@H]1CN(C)C(=O)c2cc(NC(=O)Nc3ccccc3)ccc2OC[C@H](C)N(C(=O)CN(C)C)C[C@@H]1C | inactive
8 | C[C@@H]1CN([C@@H](C)CO)C(=O)Cc2cc(NS(=O)(=O)c3cn(C)cn3)ccc2O[C@@H]1CN(C)S(=O)(=O)c1cccs1 | inactive
9 | Cc1noc(C)c1S(=O)(=O)N(C)C[C@H]1Oc2ccc(NC(=O)NC(C)C)cc2CC(=O)N([C@@H](C)CO)C[C@H]1C | inactive
10 | CC(=O)OC1CCC2(C)C(CCC3(C)C2CC=C2C4CC(C)(C)CCC4(C)CCC23C)C1(C)C (stereo not drawn) [beta-AMYRIN ACETATE ] | inactive
11 | CC(C=CC=C(C)C=CC1=C(C)C(=O)CCC1(C)C)=CC=CC=C(C)C=CC=C(C)C=CC1=C(C)C(=O)CCC1(C)C [CANTHAXANTHIN (euglenanone) ] | inactive
12 | COc1ccc(NC(=O)Nc2ccc3c(c2)C(=O)N([C@H](C)CO)C[C@H](C)[C@H](CN(C)C(=O)Nc2cccc4ccccc24)OCCCC[C@H](C)O3)cc1 | inactive
13 | N=C(CN1CCCCC1)NO | inactive
14 | C[C@@H]1CCCCO[C@H](CN(C)S(=O)(=O)c2ccccc2)[C@H](C)CN([C@@H](C)CO)C(=O)c2cc(NC(=O)Nc3ccc4c(c3)OCO4)ccc2O1 | inactive
15 | CC(C)CCC[C@@H](C)[C@H]1CC[C@H]2[C@@H]3C[C@@H](O)[C@@]4(O)C[C@@H](O)CC[C@]4(C)[C@H]3CC[C@]12C [CHOLESTAN-3beta,5alpha,6beta-TRIOL ] | active
16 | CCCCCC=CCCC(=O)NC1C(Oc2c3cc4cc2Oc2ccc(cc2Cl)C(OC2OC(CO)C(O)C(O)C2NC(C)=O)C2NC(=O)C(NC(=O)C4NC(=O)C4NC(=O)C(Cc5ccc(c(Cl)c5)O3)NC(=O)C(N)c3ccc(O)c(c3)Oc3cc(O)cc4c3)c3ccc(O)c(c3)-c3c(OC4OC(CO)C(O)C(O)C4O)cc(O)cc3C(C(=O)O)NC2=O)OC(CO)C(O)C1O (stereo not drawn) [TEICOPLANIN [A(2-1) shown] ] | inactive
17 | CS(=O)(=O)Nc1ccc2c(c1)[C@H]1C[C@@H](CC(=O)NCc3ccc(-c4ccccc4)cc3)O[C@@H](CO)[C@H]1O2 | inactive
18 | O=C(/C=C/c1ccccc1)c1ccc(O[C@@H]2O[C@H](CO)[C@@H](O)[C@H](O)[C@H]2O)cc1O | inactive
19 | CC(C)CCCC(C)C1CCC2C3CCC4CC(O)CCC4(C)C3CCC12C (stereo not drawn) [5alpha-CHOLESTANOL ] | inactive
20 | C[C@@H]1CN([C@@H](C)CO)C(=O)c2cccc(NC(=O)CCCCCC(=O)Nc3ccccc3N)c2O[C@H]1CN(C)Cc1ccc(Oc2ccccc2)cc1 | inactive
21 | CC(=O)C12OC1(C)CC1C3CC=C4CC(O)CCC4(C)C3CCC12C (stereo not drawn) [16beta-METHYL-16(17)-EPOXY-5-PREGNENOLONE ] | inactive
22 | Cc1noc(C)c1S(=O)(=O)Nc1ccc2c(c1)CC(=O)N([C@H](C)CO)C[C@H](C)[C@@H](CN(C)Cc1ccncc1)O2 | inactive
23 | CC(C)CCCC(C)C1CCC2C3CC(=O)C4CC(O)CCC4(C)C3CCC12C (stereo not drawn) [5alpha-CHOLESTAN-3beta-OL-6-ONE ] | inactive
24 | CC(C=CC1(O)C(C)=CC(=O)CC1(C)C)=CC(=O)O (mixture of isomers) [ABSCISIC ACID (cis,trans; +/-) ] | inactive
25 | C[C@@H]1CN([C@@H](C)CO)C(=O)Cc2cc(NC(=O)Cc3ccccc3)ccc2O[C@H]1CN(C)Cc1ccc(-c2ccccc2)cc1 | inactive
26 | C[C@H](CO)N1C[C@H](C)[C@@H](CN(C)C(=O)Nc2ccc3c(c2)OCO3)Oc2ccc(NC(=O)Nc3ccc(C(F)(F)F)cc3)cc2C1=O | inactive
27 | C[C@H](CO)N1C[C@H](C)[C@H](CN(C)C(=O)Nc2ccc3c(c2)OCO3)Oc2ncc(C#CCN(C)C)cc2C1=O | inactive
28 | COC1C(C(=O)O)OC(C)C(O)C1O.COC1OC(C(=O)O)C(O)C(O)C1O (stereo not drawn) [ALGINIC ACID [Mol Wt ~200,000; monomers shown] ] | inactive
